Measured values from PubChem BioAssay AID463173 (ICCB-Longwood Screening Facility, Harvard Medical School, 2010).
About 4,300 (8.3%) of roughly 52,000 compounds were called active. No stated cut-off is given here; in the data, active means survival mostly below about 52% (no sharp cut-off); inactive means mostly above about 56%. The list shows a part of the results.

System: DeltatarO mutant
Test: growth inhibition of S. aureus wild type versus tarO mutant, primary screen, teichoic acid synthesis inhibitors, RN4220, OD600 (AID 463173)
Conditions: OD600, 18 h, stronger effect = lower value, screened at 18.75 µg/mL (by protocol)

Row | SMILES | survival
1 | COc1ccc(/C=C/C(=O)Nc2ccc(Cl)c(Cl)c2)cc1OC | active: 18%
2 | CCOc1ccc(NC(=O)c2cc(CN3CCCC3)on2)cc1 | inactive: 117%
3 | Cc1c(C(=O)NCc2ccc(F)cc2)sc2nc3n(c(=O)c12)CCC3 | inactive: 78%
4 | CC(=O)Nc1ccc(NC(=O)Nc2sc3nc4n(c(=O)c3c2C)CCC(C)CC4)cc1 (centres undefined) | inactive: 67%
5 | COc1ccc(-c2ccc(=O)n(CC(=O)Nc3ccc(N(C)C)cc3)n2)cc1 | inactive: 90%
6 | O=C(Cn1nc(C(F)(F)F)c2c1CCCC2)Nc1ccc(F)c(Cl)c1 | inactive: 62%
7 | Cc1ccc(NC(=O)/C(C#N)=C/c2cn(CC(=O)NCc3ccco3)c3ccccc23)c(C)c1 | inactive: 76%
8 | CCC(=O)N1CCc2cc(CNS(=O)(=O)c3ccc(Cl)s3)ccc21 | inactive: 93%
9 | Cc1cccc(CN2C(=O)c3ccccc3Sc3ccc(C(=O)NCCc4ccccc4)cc32)c1 | inactive: 91%
10 | Cc1cc(Nc2cccc(F)c2)n2nc(-c3ccco3)nc2n1 | inactive: 89%
11 | CCc1cccc(CC)c1NC(=O)Cc1csc(C)n1 | active: 42%
12 | O=C(Nc1ccccc1Cl)NC1(C(=O)NCc2cccnc2)CCCCC1 | inactive: 81%
13 | CCOc1ccc(C(=O)Nc2ccc3nc(SCC(=O)N(C)c4ccccc4)sc3c2)cc1 | inactive: 71%
14 | CCOC(=O)c1cc(-c2ccc(OC)cc2)n(CCC(=O)Nc2ccc(OC)cc2OC)c1C | inactive: 102%
15 | CCOc1ccc(/C=C/c2nc3ccccc3n2S(=O)(=O)c2cccc(Cl)c2)cc1 | inactive: 63%
16 | COc1ccccc1CNC(=O)c1ccc(Nc2nc3ccccc3n3nnnc23)cc1 | inactive: 49%
17 | COC(=O)c1ccc2c(=O)n(CCCCCC(=O)NC(C)C)c(=O)[nH]c2c1 | inactive: 77%
18 | Cc1cc(C)cc(NC(=O)CCS(=O)(=O)c2ccc3c(c2)oc(=O)n3C)c1 | inactive: 84%
19 | Cc1ccc(Cl)cc1NC(=O)N1CCc2cc(S(=O)(=O)N3CCC(C)CC3)ccc21 | inactive: 87%
20 | CCc1ccc2[nH]c(=O)c(CNC3CCCC3)cc2c1 | inactive: 86%
21 | Cc1cccc(-n2ncc3c(N4CCN(CCO)CC4)ncnc32)c1 | inactive: 83%
22 | CCOC(=O)CCn1cnc2onc(-c3ccccc3Cl)c2c1=O | inactive: 129%
23 | CCOc1ccccc1NC(=O)C1=C(C)Nc2ncnn2C1c1ccccn1 (centres undefined) | active: 25%

Row | SMILES | survival
24 | COc1ccc(C2=C(C)C(=O)N(Cc3ccc(C(=O)Nc4ccc(C)c(C)c4)cc3)S2(=O)=O)cc1 | inactive: 87%
25 | COc1cc(Cl)c(C)cc1NS(=O)(=O)c1c(C)nc2sccn2c1=O | active: 64%
26 | COC(=O)c1ccc(Nc2ncnc3c2cnn3-c2ccccc2)cc1 | inactive: 91%
27 | COC(=O)CCCCC1SCC2NC(=O)NC21 (centres undefined) | inactive: 96%
28 | Cc1cc(C)cc(NC(=O)CCCn2nc(C)c3c(C)n(-c4ccccc4)nc3c2=O)c1 | inactive: 80%
29 | CCOC(=O)C1(C)C=C(Nc2cccc(C)c2)C(=O)N1c1ccccc1 (centres undefined) | active: 15%
30 | Cc1ccc(CNC(=O)c2nc(S(=O)(=O)Cc3ccc(C)cc3)ncc2Cl)cc1 | active: 41%
31 | COc1cc(-c2nnc(SCC(=O)Oc3ccc(C)cc3C)o2)cc(OC)c1OC | inactive: 70%
32 | CC1CCN(S(=O)(=O)c2ccc3nc(Nc4cccc(C(F)(F)F)c4)ccc3c2)CC1 | inactive: 80%
33 | COc1cccc(-c2nc(SCC(=O)NC3CCCC3)c(-c3ccc(F)cc3)[nH]2)c1 | inactive: 80%
34 | CC(C)c1ccc(/C=C(\C#N)c2nc(-c3cc4ccccc4oc3=O)cs2)cc1 | inactive: 66%
35 | Cc1cc(C)cc(NC(=O)c2ncn(-c3ccccc3)n2)c1 | inactive: 59%
36 | Cc1c(Cl)cccc1NC(=O)C(C)N(c1ccccc1)S(C)(=O)=O (centres undefined) | inactive: 75%
37 | CCc1ccc(NC(=O)N(Cc2cn(CC)c3ccccc23)C2CCCCC2)cc1 | active: -13%
38 | O=S(=O)(c1ccccc1)c1nc(-c2ccccc2)oc1N1CCN(c2cccc(Cl)c2)CC1 | inactive: 86%
39 | Cc1ccc(-c2cn3cccnc3n2)cc1NC(=O)Cc1ccccc1 | inactive: 97%
40 | CCc1ccc(NC(=O)COCc2cc(-c3ccc(F)cc3)on2)cc1 | inactive: 81%
41 | O=C(CSCc1cnn(-c2ccccc2)c1-n1cccc1)NCc1ccccc1Br | inactive: 102%
42 | CCOCN(C(=O)Cn1c(CC(C)C)nc2ccccc21)c1c(C)cccc1CC | active: -12%
43 | CCOc1ccccc1Nc1ncnc2c1c(-c1ccccc1)cn2-c1ccc(OC)cc1 | inactive: 105%
44 | CC(C)c1ccc(NC(=O)C(NS(=O)(=O)c2ccc3c(c2)CCC(=O)N3)c2ccccc2)cc1 (centres undefined) | inactive: 76%
45 | Cn1c(=O)cc(OCC(=O)N2CCN(c3ccc(F)cc3)CC2)c2ccccc21 | inactive: 66%
46 | O=C1c2[nH]nc(-c3ccccc3O)c2C(c2ccc(Cl)cc2)N1CCc1ccccc1 (centres undefined) | active: 4%

Row | SMILES | survival
47 | COc1cc(OC)cc(-c2cc3nc(C)c(CCC(=O)Nc4ccc(F)c(Cl)c4)c(C)n3n2)c1 | inactive: 56%
48 | CCOc1ccc(OCC)c(NS(=O)(=O)c2ccc3[nH]c(=O)ccc3c2)c1 | active: 8%
49 | COc1cc2nc(SCC(=O)Nc3cccc(C)c3)n3nc(CCn4c(C)nc5ccccc54)nc3c2cc1OC | inactive: 70%
50 | CC(NC(=O)C1=Cc2ccccc2OC1)c1ccccc1 (centres undefined) | inactive: 78%
51 | CCCc1nc2ccccc2c(N)c1CC | inactive: 97%
52 | COc1ccc(Cc2nc3ccc(C(=O)NCCc4ccccc4)cc3o2)cc1 | inactive: 80%
53 | CCc1ccccc1-n1c2c(cc(-c3nc(-c4ccc(Cl)cc4)cs3)c1=O)C(=O)CC(C)(C)C2 | inactive: 77%
54 | C=CCN(CC=C)C(=O)c1c(-c2ccccc2Cl)noc1C | inactive: 107%
55 | COc1cccc(NC(=O)C2CCN(c3cc(C)nc4c(-c5ccc(Cl)cc5)c(C)nn34)CC2)c1 | inactive: 129%
56 | N#CCSc1nc(N)cc(N)n1 | active: 52%
57 | O=C(COc1ccc(F)cc1)NC1CC(=O)N(c2ccc3c(c2)OCCO3)C1 (centres undefined) | inactive: 78%
58 | Cc1ccc(-c2nn3c(=O)cc(CN4CCN(S(=O)(=O)c5ccc(Cl)cc5)CC4)nc3s2)cc1 | inactive: 78%
59 | CCN(C(=O)Cn1nc(Cc2ccncc2)c2ccccc2c1=O)c1cccc(C(F)(F)F)c1 | inactive: 70%
60 | CC(C)Cn1c(=O)c2ccccc2n2c(CCC(=O)Nc3ccc(F)c(F)c3)nnc12 | inactive: 93%
61 | O=C(NCCc1ccccc1)c1ccc2c(c1)CCN2S(=O)(=O)c1ccccc1 | active: 38%
62 | Cc1ccc(S(=O)(=O)N2CCC(C(=O)Nc3ccc(Oc4ccccc4)cc3)CC2)cc1 | inactive: 47%
63 | CC(C)CSc1ccccc1NC(=O)c1sc2nc(-c3ccncc3)ccc2c1N | active: 46%
64 | CCOC(=O)c1c(NC(=O)C(C)Oc2ccc(Cl)c(C)c2)sc2c1CCCC2 (centres undefined) | active: 42%
65 | Cc1nn2c(=O)cc(COC(=O)c3ccc(NC(=O)c4cccs4)cc3)nc2s1 | inactive: 125%
66 | Cc1cc(C)cc(NC(=O)CN2C(=O)CCc3cc(S(=O)(=O)N4CCCCC4)ccc32)c1 | inactive: 83%
67 | O=C(Cn1cc(S(=O)(=O)Cc2ccccc2F)c2ccccc21)NCc1ccccc1Cl | inactive: 67%
68 | Cc1ccc(Nc2sc(C(=O)c3ccccc3)c(N)c2S(=O)(=O)c2ccccc2)c(C)c1 | inactive: 69%
69 | COc1ccccc1N1CCN(C(=O)Cn2c(=O)n3nc(-c4cccc(C)c4)nc3c3ccccc32)CC1 | inactive: 69%

Row | SMILES | survival
70 | COc1ccc(CCNC(=O)c2c(C)nn(-c3ccc(F)cc3)c2-n2cccc2)c(OC)c1OC | inactive: 67%
71 | O=C1c2ccccc2-c2onc3ccc(Oc4c(F)c(F)c(F)c(F)c4F)c1c23 | inactive: 100%
72 | CCCSc1ncc(Cl)c(C(=O)Nc2c(C(=O)c3ccc(F)cc3)oc3ccccc23)n1 | active: 44%
73 | COc1ccc(-n2ncc(C(=O)Nc3ccc4c(c3)OCCO4)c2C2CCN(C(=O)OC(C)(C)C)CC2)cc1 | inactive: 120%
74 | CCCCC1(O)CC(C)N(C)CC1C (centres undefined) | inactive: 75%
75 | CCOc1ccc(CNC(=O)C2CCCN(S(=O)(=O)N(CC)c3ccc(OCC)cc3)C2)cc1 (centres undefined) | inactive: 99%
76 | Cc1ccc(S(=O)(=O)NCc2ccc(/C=N/NC(=O)c3ccco3)o2)cc1 | inactive: 76%
77 | COc1ccc2[nH]cc(CCNC(=O)c3cnn(-c4ccccc4Cl)c3C3CCN(C(=O)OC(C)(C)C)CC3)c2c1 | inactive: 73%
78 | CCOc1ccc(C(=O)Nc2ccc(-c3nc4ccccc4s3)c(C)c2)cc1OCC | inactive: 99%
79 | Cc1ccc(NC(=O)Cn2nnc(-c3nc(-c4ccc(Cl)cc4)no3)c2N)cc1C | inactive: 78%
80 | Cc1nc2c(C(=O)NCCc3ccccc3)c[nH]n2c(=O)c1Cc1ccc(F)cc1Cl | active: -16%
81 | Cc1cccc(N2CCN(C(=O)c3ccc(NC(=O)c4nsc5ccccc45)cc3)CC2)c1C | inactive: 76%
82 | N#C/C(=C/c1ccc(-c2cccc(C(F)(F)F)c2)o1)C(=O)OC1CCCCC1 | inactive: 82%
83 | O=C(O)c1cc2nc3c(c(C(F)(F)F)n2n1)CCC3 | inactive: 89%
84 | CCN(c1cc(C)cc(C)c1)S(=O)(=O)c1nnc(NC(=O)c2ccco2)s1 | inactive: 52%
85 | COc1ccc(NC(=O)CCN2CCN(CCO)CC2)cc1 | inactive: 58%
86 | CCn1c(CC2C(=O)N(C)c3ccccc32)nc2ccccc2c1=O (centres undefined) | inactive: 84%
87 | COc1ccc(Cl)cc1NC(=O)CSc1nc(-c2ccccc2)c2ccccc2n1 | inactive: 83%
88 | O=C(Nc1cccc(F)c1)[C@@H](c1ccccc1)N1Cc2ccccc2C1=O | active: 46%
89 | CCc1nc2c(cnn2-c2ccc(Cl)cc2)c(=O)n1-c1ccc(OC)c(Cl)c1 | inactive: 69%
